The whole screen tested about 360,000 compounds, of which about 520 (0.14%) were called active. This list was built around the results that the source calls inconclusive (neither active nor inactive); the mix of calls is not that of the screen. The call rests on the fitted dose curve; in most records, active means well fitted inhibition curve with a large enough effect; inconclusive means small, poorly fitted or top-dose-only effect; inactive means no such curve, though single readings can be large or run the other way. Potencies of inconclusive entries are left out as doubtful fits.
Target: Rap guanine nucleotide exchange factor 3 (Homo sapiens) (UniProt O95398)
UniProt O95398, sequence (O95398 whole entry, looked up): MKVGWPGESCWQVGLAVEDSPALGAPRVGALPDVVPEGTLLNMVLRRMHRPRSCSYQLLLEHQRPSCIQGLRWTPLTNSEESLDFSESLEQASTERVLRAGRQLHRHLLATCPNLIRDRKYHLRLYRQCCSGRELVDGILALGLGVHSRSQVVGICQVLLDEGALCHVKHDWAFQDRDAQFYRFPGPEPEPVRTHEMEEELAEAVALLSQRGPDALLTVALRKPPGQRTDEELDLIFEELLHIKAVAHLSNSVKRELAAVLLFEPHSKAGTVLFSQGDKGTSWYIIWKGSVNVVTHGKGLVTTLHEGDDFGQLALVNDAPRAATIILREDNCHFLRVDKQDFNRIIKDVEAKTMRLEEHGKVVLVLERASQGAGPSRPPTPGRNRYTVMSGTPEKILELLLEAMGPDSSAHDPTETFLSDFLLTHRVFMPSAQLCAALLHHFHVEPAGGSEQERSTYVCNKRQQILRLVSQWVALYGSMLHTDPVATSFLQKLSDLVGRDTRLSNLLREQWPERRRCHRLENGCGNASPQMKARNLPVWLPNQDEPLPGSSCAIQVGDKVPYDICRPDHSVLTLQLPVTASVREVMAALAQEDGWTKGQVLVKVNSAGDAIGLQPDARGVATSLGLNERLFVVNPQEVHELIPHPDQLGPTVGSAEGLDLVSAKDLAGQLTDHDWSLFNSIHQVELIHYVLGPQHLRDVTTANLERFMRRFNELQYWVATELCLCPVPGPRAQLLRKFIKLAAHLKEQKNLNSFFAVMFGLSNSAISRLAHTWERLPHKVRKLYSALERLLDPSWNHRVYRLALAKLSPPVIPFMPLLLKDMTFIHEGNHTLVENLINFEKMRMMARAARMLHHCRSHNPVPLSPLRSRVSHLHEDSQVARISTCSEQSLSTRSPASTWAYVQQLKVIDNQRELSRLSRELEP
Test: qHTS for Antagonist of cAMP-regulated guanine nucleotide exchange factor 3 (EPAC1): primary screen; further: nearly all actives have a fitted effect of over 50% in size;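 on activity change, negative = inhibition: plate controls were vehicle for no effect and positive control for full effect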
Details: EPAC1 GEF assay, Rap1b-BODIPY-GDP exchange fluorescence; activity change, negative = inhibition: at 115 µM (top of the series)
Potency means the concentration at half of the fitted maximal effect; tags describe the fitted curve by direction and shape.

SMILES | Potency | activity change, negative = inhibition
CCc1cc(C(=O)N=Nc2c(O)[nH]c3ccc([N+](=O)[O-])cc23)c2ccccc2n1 | inconclusive [inhibitor, partial curve] | 
CCOC(=O)C1(CC2CCCCO2)CCN(S(=O)(=O)c2ccsc2)CC1 (centres undefined) | inconclusive [inhibitor, partial curve] | 
COC(=O)c1ccc(C(=S)N2CCCCC2)cc1 | inconclusive [inhibitor, partial curve, poor fit] | 
C=C(C)n1c(=O)n(Cc2ccc(C)cc2)c2ccccc21 | inconclusive [inhibitor, full curve, poor fit] | 
CCNC(=O)c1sc2cc(C)ccc2c1Cl |  | inactive: 18.6%
Cc1cccc(NC(=S)N2CCN(S(=O)(=O)c3cccc(F)c3)CC2)c1 | inconclusive [inhibitor, single point] | 
COCOCCn1cc(CN2CCS(=O)(=O)N(Cc3ccc(-c4ccc(F)cc4)cc3)C(C(C)C)C2=O)nn1 (centres undefined) |  | inactive: -24.1%
FC(F)C(F)(F)Oc1cccc(Nc2nccn3c(-c4cc(C(F)(F)F)cc(C(F)(F)F)c4)cnc23)c1 | inconclusive [inhibitor, partial curve, poor fit] | 
CC(C)(C)c1ccc(C2CC2C(=O)N/N=C\c2ccc[nH]2)cc1 (centres undefined) | inconclusive [inhibitor, partial curve] | 
Cc1cccc(C)c1OCC(=O)Nc1ccccc1N1CCCCC1 |  | inactive: 1.48%
CC(=O)N1CCN(C(=O)c2ccc(-c3ccccc3Cl)o2)CC1 |  | inactive: -8.12%
Cc1cccc(N2CCN(C(=O)c3nn(C)c4c3CS(=O)(=O)c3ccccc3-4)CC2)c1C | inconclusive [inhibitor, partial curve] | 
O=C(Nc1ccc(Br)cc1)c1csc(-c2ccncc2)n1 | inconclusive [inhibitor, single point] | 
c1coc(-c2nc(-c3ccco3)c(-c3ccco3)nc2-c2ccco2)c1 | inconclusive [inhibitor, partial curve] | 
CCOC(=O)/C=C/C(=O)OCC(=O)Nc1cccc(Br)c1 | inconclusive [inhibitor, partial curve, poor fit] | 
CC/C(C)=N/Nc1cccc([N+](=O)[O-])c1 | inconclusive [inhibitor, single point] | 
O=C(NCC(=O)N1CCN(c2ncccn2)CC1)c1ccccc1F |  | inactive: -11%
O=C(c1cc(-c2ccco2)nn1-c1cccc(Cl)c1)N1CCCCC1 | inconclusive [inhibitor, single point] | 
Cn1ccc(=S)c2ccccc21 | inconclusive [inhibitor, single point] | 
NNc1nc2c(Cl)c(Cl)ccc2s1 | inconclusive [inhibitor, partial curve, poor fit] | 
O=C(O)/C=C\C(=O)Nc1ccccc1C#Cc1ccc(Br)cc1 |  | inactive: -3.08%
Cc1ccc(/C=C2/C(=N)N3N=C(CC(=O)N4CCCC4)SC3=NC2=O)o1 |  | inactive: 3.8%

SMILES | Potency | activity change, negative = inhibition
Cc1nc(N2N=C(c3ccc(Cl)cc3)CC2c2ccco2)sc1C(=O)N(C)C (centres undefined) | inconclusive [inhibitor, partial curve] | 
COC(=O)c1ccsc1NC(=O)CCS(=O)(=O)c1ccc(Cl)cc1 |  | inactive: 4.03%
CCC(C)C(NC(=O)c1ccccc1NC(=O)c1ccco1)C(=O)NNC(=O)c1ccncc1 (centres undefined) | inconclusive [inhibitor, full curve] | 
O=C(NN=C1CCN(Cc2ccccc2)CC1)c1ccccc1 | inconclusive [inhibitor, single point] | 
CC(C)(C)C(=O)CC1(O)C(=O)N(Cc2ccc(Cl)cc2)c2ccccc21 (centres undefined) | inconclusive [inhibitor, partial curve, poor fit] | 
CC1CCCN(C(=O)/C(=C/c2ccco2)NC(=O)c2ccccc2)C1 (centres undefined) | inconclusive [inhibitor, full curve, poor fit] | 
CCN1/C(=C/c2cc[n+](C)cc2)C=Cc2cc(C)ccc21 |  | inactive: -4.12%
Cn1c(COc2ccc(Cl)cc2)nc2ccccc2c1=O | inconclusive [inhibitor, partial curve] | 
CC(NC(=O)Cn1cc2c(n1)CCCCC2)c1ccccc1 (centres undefined) | inconclusive [inhibitor, single point] | 
Cc1ccc2c(c1)C(=O)C(=O)N2Cc1ccc(F)cc1 |  | inactive: -22.8%
CC(C)C[C@H](NC(=O)c1nc[nH]c1C(=O)NCc1ccc(CNC(=O)OC(C)(C)C)cc1)C(=O)OC(C)(C)C | inconclusive [inhibitor, full curve] | 
CC(=Nc1ccc(C)cc1)c1sc2ccccc2c1O |  | inactive: -5.75%
COCCNC(=O)/C(C#N)=C/c1ccc(OC(=O)c2cccs2)c(OC)c1 | inconclusive [inhibitor, partial curve] | 
Cc1nn(S(=O)(=O)c2cccs2)c(C)c1Sc1ccc([N+](=O)[O-])cc1 | inconclusive [inhibitor, partial curve] | 
Cc1cc(C)cc(N2CC(O)=C(c3nc4ccccc4c(=O)[nH]3)C2=N)c1 | inconclusive [inhibitor, full curve] | 
Cc1nc2ccc(C(=O)N/N=C/c3ccccc3O)cc2[nH]1 | inconclusive [inhibitor, partial curve] | 
O=S(=O)(Nc1nccs1)c1ccc(NCc2cc(Br)cc(Br)c2O)cc1 | inconclusive [inhibitor, single point] | 
CC(C)(C)c1ccc(C(=O)NCCOc2ccccc2)cc1 |  | inactive: -17.7%
Cc1cccc2cc3c(N)c(C(=O)Nc4ccc(N5CCOCC5)cc4)sc3nc12 |  | inactive: -3.93%
CC(c1ccccc1)N1C(=O)C2C3C=CC(C4CC34)C2C1=O (centres undefined) | inconclusive [inhibitor, single point] | 
O=C(Nc1cccnc1)c1ccc(COc2cc(Cl)ccc2Cl)o1 |  | inactive: -6.51%
Cc1cc(N2C(=O)C(O)=C(C(=O)c3ccco3)C2c2cccc(Oc3ccccc3)c2)no1 (centres undefined) | inconclusive [inhibitor, partial curve, poor fit] | 

From PubChem BioAssay AID720709 (National Center for Advancing Translational Sciences (NCATS), 2013)
